According to PubChem BioAssay AID1671194 (National Center for Advancing Translational Sciences (NCATS), 2021):
Among all 140,000 compounds or so, about 240 (0.17%) were called active. This list was built around the results that the source calls inconclusive (neither active nor inactive); the mix of calls is not that of the screen. The call rests on the fitted dose curve; in most records, active means well fitted inhibition curve with a large enough effect; inconclusive means small, poorly fitted or top-dose-only effect; inactive means no such curve, though single readings can be large or run the other way. Potencies beside an inconclusive call are fits to weak or partial responses and may not hold up.

Assay: Primary qHTS assay for inhibitors of alpha-synuclein gene (SNCA) expression; further: nearly all actives have a fitted effect of over 45% in size;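 on activity change, negative = inhibition: plate controls were DMSO cells for no effect and cell-free wells for full effect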
Conditions: HEK-293 SNCA-luciferase knock-in, luminescence, 24 h; activity change, negative = inhibition: at 57.2 µM (top of the series) unless noted
Potency means the concentration at half of the fitted maximal effect; tags describe the fitted curve by direction and shape.

Potency, inconclusive:
COc1ccc(NC(=O)CCCS(=O)(=O)c2nc(-c3ccc(OC)c(OC)c3)cc(C(F)(F)F)n2)cc1OC 39.8 µM [inhibitor, single point]
COc1cccc(N2C(=O)NC(=NC3CCCC3)C23CCCN(CCC(C)C)C3)c1 (stereo not drawn) 39.8 µM [inhibitor, partial curve, poor fit]
COCCN1CCN(C[C@@H]2C=C(C)[C@H](Cc3nnc(-c4ccc(OC)cc4)o3)C[C@H]2C(C)C)CC1 39.8 µM [inhibitor, single point]
CCN1C(=O)CC(C(=O)Nc2ccc(OC)cc2)SC1=Nc1ccc(C)c(C)c1 (stereo not drawn) 39.8 µM [inhibitor, single point]
COc1ccc(Cl)cc1-c1ccc2c(c1)C(=O)N1CC[C@H](NC(=O)c3cccs3)[C@H]1C(=O)N2 17.8 µM [inhibitor, partial curve, poor fit]
COc1ccc(OC)c(CNS(=O)(=O)c2ccc(-c3cc(C(F)(F)F)on3)s2)c1 22.4 µM [inhibitor, single point]
CC1=C[C@@H](CNC(=O)c2ccccc2)[C@H](C(C)C)C[C@H]1Cc1nc2ccccc2n1C 35.5 µM [inhibitor, partial curve, poor fit]
COc1cccc(-c2nc(CS(=O)CC(=O)N3CCN(c4cccc(C(F)(F)F)c4)CC3)c(C)o2)c1 (stereo not drawn) 39.8 µM [inhibitor, single point]
Cc1ccc(Nc2ccnc(N3CCCC(C(=O)NCc4cccc(Cl)c4)C3)n2)cc1 (stereo not drawn) 25.1 µM [inhibitor, partial curve, poor fit]
Cc1nc(-c2c3n(c(=O)n(CC(=O)Nc4ccc(Cl)cc4)c2=O)CCCCC3)no1 8.91 µM [inhibitor, single point]
COc1ccc(-c2nc3c(c(-c4ccccc4)n2)CN(C(=O)c2cccc(Cl)c2)CC3)cc1 39.8 µM [inhibitor, single point]
Cc1ccc(CNC(=O)CN(c2cc(C)cc(C)c2)S(=O)(=O)c2c(C)[nH]c(=O)[nH]c2=O)cc1 39.8 µM [inhibitor, single point]
O=C(NC1CCCC1)c1ccc2c(c1)N(Cc1ccc(F)cc1)C(=O)c1ccccc1S2 39.8 µM [inhibitor, single point]
O=C(c1ccncc1)N1CCn2c(nnc2-c2cncc(Br)c2)C1 28.2 µM [inhibitor, single point]
Fc1cccc(-c2cnc([C@@H]3COCCN3Cc3ccc(Cl)cc3)[nH]2)c1 56.2 µM [inhibitor, single point]
O=C(Cn1ncc2c3ccccc3n(Cc3cccc(Cl)c3)c2c1=O)N1CCCCCC1 39.8 µM [inhibitor, single point]
COc1cccc(CC2(CO)CCCNC2)c1 (stereo not drawn) 3.98 µM [inhibitor, single point]
Cc1cc(C)n(CCC(=O)NCC23CCCC=C2NC(=O)CC3)n1 (stereo not drawn) 2.82 µM [inhibitor, full curve, poor fit]
CCN(Cc1ccccc1)C(=O)CCS(=O)(=O)c1ccc2c(c1)CCN2C(C)=O 0.708 µM [inhibitor, full curve, poor fit]
O=C(c1ccccc1Cl)N1CCCC(C(=O)N2CCCC2c2nc3ccncc3[nH]2)C1 (stereo not drawn) 3.98 µM [inhibitor, partial curve, poor fit]
CCc1ccc(-c2nc(CSCC(=O)NCc3ccc(C)cc3)c(C)o2)cc1 22.4 µM [inhibitor, partial curve, poor fit]
O=c1n(-c2ccncc2)nc2n1CCN(Cc1ccc(OC(F)(F)F)cc1)C2 2.24 µM [inhibitor, full curve, poor fit]
CC(=O)c1cccc(Nc2nc(-c3ccccc3Cl)nc3ccccc23)c1 11.2 µM [inhibitor, partial curve]
O=C(NCCCN1CCN(c2ccc(F)cc2)CC1)c1ccc2nc(CCc3ccccc3)oc2c1 39.8 µM [inhibitor, single point]
COc1cccc(Cl)c1-c1nccc2c(=O)cc(-c3ccccn3)oc12 10 µM [inhibitor, full curve, poor fit]
CC(C)c1ccc(NC(=O)Cn2c(=O)oc3cc(S(=O)(=O)N4CCCC4)ccc32)cc1 35.5 µM [inhibitor, single point]
CC1C=CC(C)N1c1ncnc2c1CN(C1CCNC1)C(=O)CN2C (stereo not drawn) 17.8 µM [inhibitor, partial curve, poor fit]
COc1ccc(-c2noc(-c3cccn3CC(=O)Nc3cc(Cl)c(OC)cc3OC)n2)cc1F 35.5 µM [inhibitor, single point]
O=C(NCc1ccccc1)c1ccc2nnc(-c3ccoc3)n2c1 56.2 µM [inhibitor, single point]
CC(C)(C)OC(=O)N1CCC(c2c(C(=O)N3CCN(c4ncccn4)CC3)cnn2-c2cccc(F)c2)CC1 2.51 µM [inhibitor, single point]
CC1=C(C(=O)Nc2ccccc2)C(c2cccs2)n2nc(SCc3ccccc3)nc2N1 (stereo not drawn) 39.8 µM [inhibitor, partial curve, poor fit]
CN(C)[C@@H]1CNCC[C@@H]1CO 35.5 µM [inhibitor, single point]
COc1ccccc1N1CCN(C(=O)[C@@H]2Cc3c[nH]c4cccc(c34)[C@H](CC(C)C)N2)CC1 39.8 µM [inhibitor, single point]
c1ccc(C2CCCN(CCn3ccnc3-c3cc4n(n3)CCNC4)C2)cc1 (stereo not drawn) 1.78 µM [inhibitor, full curve, poor fit]
CC(C)(Oc1nn(Cc2cccc(Cl)c2)c2ccccc12)C(=O)NC1CCOCC1 56.2 µM [inhibitor, single point]
O=C(C1CC1)N1CCCC(N2CCN(c3cccc(C(F)(F)F)c3)CC2)C1 (stereo not drawn) 17.8 µM [inhibitor, single point]
CCOC(=O)N1CCC(NC(=O)c2ccc3c(c2)N(Cc2ccc(Cl)cc2)C(=O)c2ccccc2S3=O)CC1 (stereo not drawn) 15.8 µM [inhibitor, single point]
CCOC(=O)c1c(Nc2cccc(C)c2)nnc(-c2ccccc2)c1-c1ccccc1 39.8 µM [inhibitor, single point]
COc1cccc(Nc2ncc3ncc(=O)n(Cc4cccs4)c3n2)c1 28.2 µM [inhibitor, single point]
CC(=O)c1cccc(NC(=O)Cn2c(N3CCCCC3)nc(C)c(C)c2=O)c1 3.16 µM [inhibitor, single point]
Cc1cc(C)cc(-c2ccc(CN3CCCC(NC(=O)Cc4ccc(F)cc4)C3)cc2)c1 (stereo not drawn) 39.8 µM [inhibitor, single point]
O=C(COc1ccccc1)NC1CCCc2c1[nH]c1ccccc21 (stereo not drawn) 39.8 µM [inhibitor, single point]
C[S+](=O)([O-])N1CCN(C(=O)N2CC3CC(C2)[C@H]2CCCC(=O)N2C3)CC1 (stereo partly drawn) 3.98 µM [inhibitor, full curve]

Potency, inactive:
C1=C(c2nc(-c3ccncc3)cc3c2ccn3Cc2cccnc2)CCOC1
O=C(c1ccc(Cl)cc1)N1CCC(n2cc(-c3ccccn3)[nH]c2=O)CC1
O=C(c1ccc(Cl)cc1)N1CC2(CCN(Cc3ccccn3)C2)Cc2ccccc21 (stereo not drawn)
CC(C(=O)NCCc1ccccc1)N1C(=O)COc2ccc(C(=O)COc3ccc(Cl)cc3)cc21 (stereo not drawn)
CC(C)c1noc(-c2cccn3c(CNC(=O)c4cc(F)ccc4Cl)nnc23)n1
O=C(NCCc1cccc(Oc2ccccc2)c1)[C@H]1CCC[C@H](O)C1
COc1ccc(NC(=O)c2ccc3c(c2)CCN3S(=O)(=O)c2ccccc2)cc1
Cc1nn(-c2ccccc2)nc1C(=O)N[C@H](C)c1onc(C)c1C(=O)O
COc1ccc(OCC2CC3(CCCCC3)CN2S(=O)(=O)c2c(C)noc2C)cc1 (stereo not drawn)
COc1cc(CN2CCN(S(=O)(=O)c3ccc(F)cc3)CC2)cc(OC)c1OC
Cc1noc2c(NC3CCC(O)CC3)cc(-c3cccnc3)nc12 (stereo not drawn)
COCCCN1C(=O)N(Cc2ccccc2)C(=O)C12CCN(Cc1cccs1)CC2
CN(C)S(=O)(=O)N1CCN(C(=O)C2CC(=O)N(c3n[nH]c4ccccc34)C2)CC1 (stereo not drawn)
O=C(c1ccc(F)cc1)N1CCCC(C(=O)N2CCC(c3nc4ccncc4[nH]3)CC2)C1 (stereo not drawn)
Cc1ccc(CN2CCc3nc(C(C)C)nc(-c4ccc(O)cc4)c3C2)cc1
O=C(CCc1nnn2c1CN(C(=O)c1cccc3[nH]ccc13)CC2)N1CCCC1
CN(C)c1ccc(-c2nc(-c3nnn4c3COC(c3ccccc3Cl)C4)no2)cc1 (stereo not drawn)
Cn1cc(-c2cnc(Nc3ccc(N4CCOCC4)cc3)c3c2CCO3)cn1
Clc1cccc(-n2ncc3c(N4CCCCCC4)ncnc32)c1

Activity change, negative = inhibition, inconclusive:
O=C1NCCC[C@@H]1NC(=O)[C@H]1CN(C(=O)c2ccccc2)CCN1S(=O)(=O)c1ccc(F)cc1 -36.6% [inhibitor]
